Reference: PubChem BioAssay AID686971 (National Center for Advancing Translational Sciences (NCATS), 2013)
In all, about 360,000 compounds went through this assay and about 7,500 (2.1%) were called active. The shares of active, inactive and inconclusive entries below differ from those in the screen. Calls follow the shape of the dose curve; as a rule, active = well fitted cell-killing curve with a large enough effect; inconclusive = small, poorly fitted or top-dose-only effect, or effect the other way, or another doubt; inactive = no such curve, though single readings can be large or run the other way. No potency is given beside an inconclusive call; the fits are too rough.

assay: qHTS for induction of synthetic lethality in tumor cells producing 2HG: qHTS for the HT-1080-IDH1KD cell line; conditions: HT-1080 IDH1 knockdown viability, ATP luminescence, 48 h; series mostly up to 46.1 µM
How it was run: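 In this qHTS, HT-1080 cells depleted of IDH1 are exposed for 48 h at 37 °C to compound titrations. Toxicity is scored from CellTiter-Glo luminescence, with DMSO as full viability and medium alone as none.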
Potency is read from the fitted curve at half-maximal effect; tags tell the direction and shape of the fitted curve.

Row | Structure (SMILES) | Potency
1 | CCCCN(C)C(=O)C1CCC(CNS(=O)(=O)c2ccc3c(c2)CC(C)N3C(=O)C2CC2)CC1 (stereo not drawn) | inconclusive [cytotoxic, single point]
2 | O=C(N/N=C/c1cc([N+](=O)[O-])ccc1O)/C(=C\c1cccs1)NC(=O)c1ccccc1 | inconclusive [cytotoxic, partial curve]
3 | Cc1ccc2c(CNCc3ccccc3)cc(=O)oc2c1 | active: 8.2 µM
4 | Cc1cc(C)cc(NC(=O)[C@H](NC(=O)[C@@H]2Cc3ccccc3CN2)c2ccccc2)c1 | inconclusive [cytotoxic, partial curve]
5 | C#CCN(C[C@@H]1[C@@H](OC(=O)NC2CC2)[C@@H](OC(=O)NC2CC2)Cn2c(=O)ccc(=O)n21)S(=O)(=O)c1ccc(C)cc1 | inconclusive [cytotoxic, single point]
6 | Nc1ccc2c(c1)C(=NO)c1cc([N+](=O)[O-])ccc1-2 | inconclusive [cytotoxic, single point]
7 | C=C1C(=O)[C@]23C[C@H]1CCC2[C@@]1(C)C(C[C@@H]3O)[C@](C)(C(=O)O)CC[C@@H]1O (stereo partly drawn) | inconclusive [cytotoxic, single point]
8 | COC(=O)[C@@]1(Cc2ccccc2)[C@@H]2C(=CC(=O)[C@H]2CC(=O)C(=O)N(C)C)CN1C(=O)c1ccccc1 | active: 20.6 µM
9 | COC(=O)C1CN(S(=O)(=O)c2ccc(C)cc2)CCN1S(=O)(=O)c1ccc(C)cc1 (stereo not drawn) | inactive
10 | O=[N+]([O-])c1cc(C(F)(F)F)ccc1NCC1CCCO1 (stereo not drawn) | inactive
11 | O=C(Nc1ccc(-c2noc(CCc3ccccc3)n2)cc1)c1cccnc1 | inconclusive [cytotoxic, single point]
12 | Cc1cccc(Nc2cc(C)c3c(O)cccc3n2)c1C | inconclusive [cytotoxic, partial curve]
13 | Cc1cc2nc(-c3ccc[nH]c3=O)[nH]c2cc1C | active: 18.4 µM
14 | Cc1ccc(-n2c(C)cc(C(=O)CSc3n[nH]c(N)n3)c2C)cc1 | inconclusive [cytotoxic, single point]
15 | C[C@H](CO)N1C[C@H](C)[C@@H](CN(C)Cc2ccc(C(=O)Nc3ccccc3N)cc2)Oc2c(NC(=O)C3CCCCC3)cccc2C1=O | inactive
16 | CS(=O)(=O)c1ccccc1-c1nc(-c2cccc(Cl)c2)no1 | inactive
17 | COc1cccc(CN2CCC(C(=O)NC(C)c3cccc4ccccc34)CC2)c1 (stereo not drawn) | inconclusive [cytotoxic, single point]
18 | COc1cc2c(cc1OC)C(=O)C(c1ccc3c(c1)OCO3)CC2 (stereo not drawn) | inactive
